Among all 94,000 compounds or so, about 4,000 (4.3%) were called active. Inconclusive results, whose numbers are uncertain, are shown with a selection of clear calls. The call rests on the fitted dose curve; in most records, active means well fitted inhibition curve with a large enough effect; inconclusive means small, poorly fitted or top-dose-only effect; inactive means no such curve, though single readings can be large or run the other way. Where the call is inconclusive, the potency comes from a doubtful curve fit.
Assay: Cytotoxic Profiling in NIH 3T3 Cell Line of Diverse Libraries Using Quantitative High-Throughput Screening; further: nearly all actives have a fitted effect of over 55% in size
Settings: NIH 3T3 viability, CellTiter-Glo ATP luminescence, 48-72 h; activity change, negative = cytotoxicity: at 96.7 µM (top of the series); series mostly up to 96.7 µM
In short: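 First NIH 3T3 cells are plated at 400 cells/well; next compound is pinned in; then plates incubate 48 or 72 hr at 37 °C; finally CellTiter-Glo is added and luminescence read after 10 min.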
On the % scale 0 is the no-effect control and ±100 the full control effect; potency means the concentration at half of the fitted maximal effect; tags describe the fitted curve by direction and shape.

Which Potency does the source give for `Cc1ccc(Cn2c(C3CCN(C(=O)c4ccc(C#N)cc4)CC3)n[nH]c2=O)cc1` here?
Its Potency is inconclusive: 50.1 µM [inhibitor, partial curve, poor fit].

For `Cc1ccc(CNC(=O)c2ccc(-c3ccc(N4CCCCC4)nc3)cc2)o1`, which “activity change, negative = cytotoxicity” value is on record?
Its value is inactive: -9.88%.

Which Potency does the source give for `COc1cccc(CN2CCOC3(CCN(Cc4ccc(F)cc4F)CC3)C2=O)c1` here?
The Potency was inconclusive: 89.1 µM [inhibitor, partial curve].

Which Potency does the source give for `Cn1ncc2c(C(=O)Nc3ccc(Cl)cc3)cc(-c3cccc(F)c3)nc21` here?
The Potency was inconclusive: 31.6 µM [inhibitor, full curve, poor fit].

For `O=C(NC1CCCC1)c1ccc(OC2CCN(CCCC(F)(F)F)CC2)c(Cl)c1`, which Potency is on record?
The Potency was inconclusive: 17.8 µM [inhibitor, full curve, poor fit].

For `CNC(=O)[C@@H]1C[C@H](n2cc(CNC(=O)Nc3ccc(Cl)cc3)nn2)CN1`, which “outcome” value is on record?
The value was “inactive”.

With `CCS(=O)(=O)N1CC(F)(F)C[C@H]1c1nc(CCOC)no1` as the compound, how does the “activity change, negative = cytotoxicity” value read?
Its value is inactive: -2.71%.

With `O=C1NCCOCCN(C(=O)Cc2c[nH]c3ccccc23)[C@H]2CCC[C@@H]12` as the compound, how does the “outcome” value read?
The value was “inactive”.

For `O=C(c1ccc(C(F)(F)F)cc1)N1CC(Oc2ccc3c(c2)OCO3)C1`, which Potency is on record?
Its Potency is inconclusive: 2.51 µM [inhibitor, full curve, poor fit].

For `FC(F)(F)Oc1cccc(CN2CCC[C@H]2c2nc(-c3ccc(N4CCOCC4)nc3)no2)c1`, which Potency is on record?
The Potency was inconclusive: 44.7 µM [inhibitor, partial curve].

Which Potency does the source give for `O=C(Cc1cccc(O)c1)N1CC(CNc2ccccc2)C2(C1)CN(c1ccccc1)C2` (stereo not drawn) here?
Its Potency is active: 22.4 µM.

For `O=C(NCc1ccccc1)C1CCN(c2cc(C(F)(F)F)ncn2)CC1`, which Potency is on record?
The Potency was inconclusive: 35.5 µM [inhibitor, partial curve, poor fit].

Which Potency does the source give for `Cc1cc(C(=O)NC[C@@H]2CC[C@H]3C[C@@H]2C3(C)C)ccc1Cl` here?
Its Potency is active: 35.5 µM.

For `CC1CCC2(CC1)NC(=O)N(CC(=O)Nc1ccc(Cl)cc1)C2=O` (stereo not drawn), which Potency is on record?
The Potency was active: 11.2 µM.

With `O=C(CCC1CCCN(S(=O)(=O)c2ccccc2)C1)N1CCc2ccccc2C1` (stereo not drawn) as the compound, how does the Potency read?
Its Potency is inconclusive: 44.7 µM [inhibitor, partial curve, poor fit].

For `N#Cc1cccc(NC(=O)O[C@@H]2CO[C@H]3[C@@H]2OC[C@@H]3n2nnnc2-c2ccc(-c3ccccc3)cc2)c1`, which Potency is on record?
The Potency was inconclusive: 89.1 µM [inhibitor, single point].

With `COC(=O)c1ccc(NC(=O)c2c(C)oc3ccn(Cc4ccc(F)cc4)c(=O)c23)cc1` as the compound, how does the “activity change, negative = cytotoxicity” value read?
The value was inactive: 3.3%.

For `COc1ccc(CCNC(=O)c2nc3sccn3c2-c2ccc(F)cc2)cc1`, which “activity change, negative = cytotoxicity” value is on record?
Its value is inactive: -7.34% [at 138 µM].

— PubChem BioAssay AID1345082 (National Center for Advancing Translational Sciences (NCATS), 2018)
